US10407421B2, “Bicyclic aryl monobactam compounds and methods of use thereof for the treatment of bacterial infections” (priority 2016, dated 2019)
Counter-ions that a name gives are not always drawn. The name of at least one read-out is uncertain.

How the values were obtained:
Type in all cases: cell-based
Conditions in all cases: in the presence of β lactamase inhibitor Relebactam 4 μg/mL; 22 hours at 35±2° C.; lowest concentration inhibiting 95% of growth (OD600)
[1] = tested on: Acinetobacter baumannii expressing TEM-1, AmpC, and Oxa-24/40 (CL6188); assay: Growth inhibitory concentration (OD600), Acinetobacter baumannii CL6188
Protocol: (§1) Antibiotic Activity: Determination of Growth Inhibitory Concentration
(§2) The concentrations of compounds required to inhibit the growth of various strains of bacteria were determined in an assay that assessed bacterial growth by measuring optical density at 600 nm (OD600). The bacterial strains tested included the clinical strains Escherichia coli expressing NDM-1 (CLB30016), Klebsiella pneumoniae expressing KPC-1 (CL6569), Acinetobacter baumannii expressing TEM-1, AmpC, and Oxa-24/40 (CL6188) and Pseudomonas aeruginosa expressing AmpC (CL5701). All compounds were tested in the presence of a β lactamase inhibitor (BLi, Relebactam) in 384-well microplates. The clinical strains were stored as frozen single use stocks, thawed and diluted into 1.1× cation-adjusted Mueller-Hinton II broth to achieve approximately 2×10^5 CFU/mL. Test compounds were dissolved in DMSO and diluted 1:50 in the assay, resulting in a final concentration range of 100 μM to 0.098 μM. On the day of the assay, 1 μL of test compound was added to the plate followed by 4 μL of 50 μg/mL BLi in MOPS buffer and 45 µL of diluted bacteria. Plates were centrifuged at 1000 rpm for 30 seconds, shaken at approximately 800 rpm for 1 minute, and incubated at 35±2° C. for 22 hours. The concentration of BLi used in the assay was 4 μg/mL. At the end of the incubation, absorbance at 600 nm was determined using a spectrophotometer. Inhibition was quantitated by identifying the lowest concentration of test compound that was required to inhibit 95% of the growth of the bacteria. The results for Examples 1-73 are reported in Table I, expressed as the concentration of compound that inhibited 95% of bacterial growth (Minimum Inhibitory Threshold Concentration; MITC95).

[2] = tested on: Pseudomonas aeruginosa expressing AmpC (CL5701); assay: Growth inhibitory concentration (OD600), Pseudomonas aeruginosa CL5701
Protocol: as §1, §2

[3] = tested on: Klebsiella pneumoniae expressing KPC-1 (CL6569); assay: Growth inhibitory concentration (OD600), Klebsiella pneumoniae CL6569
Protocol: as §1, §2

[4] = tested on: Escherichia coli expressing NDM-1 (CLB30016); assay: Growth inhibitory concentration (OD600), Escherichia coli CLB30016
Protocol: as §1, §2

Cn1c(Nc2ccc3cc(OC[C@H](O/N=C(\C(=O)N[C@@H]4C(=O)N(OS(=O)(=O)O)C4(C)C)c4csc(N)n4)C(=O)O)ccc3n2)cc[n+]1C [Example 26, 5-((6-((S)-2-((((Z)-1-(2-aminothiazol-4-yl)-2-(((S)-2,2-dimethyl-4-oxo-1-(sulfooxy)azetidin-3-yl)amino)-2-oxoethylidene)amino)oxy)-2-carboxyethoxy)quinolin-2-yl)amino)-1,2-dimethyl-1H-pyrazol-2-ium 2,2,2-trifluoroacetate]
AB_CL6188 MITC95 [1]: 50 µM
PA_CL5701 MITC95 [2]: 12.5 µM
KP_CL6569 MITC95 [3]: 0.78 µM
EC_CLB30016 MITC95 [4]: 12.5 µM

C[n+]1c(Nc2ccc3cc(OC[C@H](O/N=C(\C(=O)N[C@@H]4C(=O)N(OS(=O)(=O)[O-])C4(C)C)c4csc(N)n4)C(=O)O)ccc3n2)ccn1CCCN [Example 27, (S)-3-((Z)-2-(((S)-2-((2-((1-(3-aminopropyl)-2-methyl-1H-pyrazol-2-ium-3-yl)amino)quinolin-6-yl)oxy)-1-carboxyethoxy)imino)-2-(2-aminothiazol-4-yl)acetamido)-2,2-dimethyl-4-oxoazetidin-1-yl Sulfate]
AB_CL6188 MITC95 [1]: 100 µM
PA_CL5701 MITC95 [2]: 50 µM
KP_CL6569 MITC95 [3]: 6.2 µM
EC_CLB30016 MITC95 [4]: 100 µM

CC1(C)[C@H](NC(=O)/C(=N\OCCOc2ccc3nc(C4CCCNC4)cn3c2)c2csc(N)n2)C(=O)N1OS(=O)(=O)O (stereo partly drawn) [Example 28, 3-(6-(2-((((Z)-1-(2-aminothiazol-4-yl)-2-(((S)-2,2-dimethyl-4-oxo-1-(sulfooxy)azetidin-3-yl)amino)-2-oxoethylidene)amino)oxy)ethoxy)imidazo[1,2-a]pyridin-2-yl)piperidin-1-ium 2,2,2-trifluoroacetate]
AB_CL6188 MITC95 [1]: 11 µM
PA_CL5701 MITC95 [2]: 22 µM
KP_CL6569 MITC95 [3]: 3.4 µM
EC_CLB30016 MITC95 [4]: 38 µM

C[n+]1c(C2CCCNC2)cn2cc(OCCO/N=C(\C(=O)N[C@@H]3C(=O)N(OS(=O)(=O)[O-])C3(C)C)c3csc(N)n3)ccc21 (stereo partly drawn) [Example 29, (3S)-3-((Z)-2-(2-aminothiazol-4-yl)-2-((2-((1-methyl-2-(piperidin-1-ium-3-yl)imidazo[1,2-a]pyridin-1-ium-6-yl)oxy)ethoxy)imino)acetamido)-2,2-dimethyl-4-oxoazetidin-1-yl sulfate 2,2,2-trifluoroacetate]
AB_CL6188 MITC95 [1]: 6.2 µM
PA_CL5701 MITC95 [2]: 19 µM
KP_CL6569 MITC95 [3]: 1.3 µM
EC_CLB30016 MITC95 [4]: 25 µM

C[n+]1c2ccc(OC[C@H](O/N=C(\C(=O)N[C@@H]3C(=O)N(OS(=O)(=O)O)C3(C)C)c3csc(N)n3)C(=O)O)cc2cn1CC1CNC1 [Example 30, 5-((S)-2-((((Z)-1-(2-aminothiazol-4-yl)-2-(((S)-2,2-dimethyl-4-oxo-1-(sulfooxy)azetidin-3-yl)amino)-2-oxoethylidene)amino)oxy)-2-carboxyethoxy)-2-(azetidin-3-ylmethyl)-1-methyl-2H-indazol-1-ium 2,2,2-trifluoroacetate]
AB_CL6188 MITC95 [1]: 1.6 µM
PA_CL5701 MITC95 [2]: 3.1 µM
KP_CL6569 MITC95 [3]: 0.39 µM
EC_CLB30016 MITC95 [4]: 6.2 µM

C[n+]1c2ccc(OC[C@@H](O/N=C(\C(=O)N[C@@H]3C(=O)N(OS(=O)(=O)O)C3(C)C)c3csc(N)n3)C(=O)O)cc2cn1CC1CNC1 [Example 31, 5-((R)-2-((((Z)-1-(2-aminothiazol-4-yl)-2-(((S)-2,2-dimethyl-4-oxo-1-(sulfooxy)azetidin-3-yl)amino)-2-oxoethylidene)amino)oxy)-2-carboxyethoxy)-2-(azetidin-3-ylmethyl)-1-methyl-2H-indazol-1-ium 2,2,2-trifluoroacetate]
AB_CL6188 MITC95 [1]: 12.5 µM
PA_CL5701 MITC95 [2]: 12.5 µM
KP_CL6569 MITC95 [3]: 6.2 µM
EC_CLB30016 MITC95 [4]: 100 µM

C[n+]1cc2cc(OC[C@H](O/N=C(\C(=O)N[C@@H]3C(=O)N(OS(=O)(=O)O)C3(C)C)c3csc(N)n3)C(=O)O)ccc2n1CCCN [Example 32, 1-(3-aminopropyl)-5-((S)-2-((((Z)-1-(2-aminothiazol-4-yl)-2-(((S)-2,2-dimethyl-4-oxo-1-(sulfooxy)azetidin-3-yl)amino)-2-oxoethylidene)amino)oxy)-2-carboxyethoxy)-2-methyl-1H-indazol-2-ium 2,2,2-trifluoroacetate]
AB_CL6188 MITC95 [1]: 6.2 µM
PA_CL5701 MITC95 [2]: 6.2 µM
KP_CL6569 MITC95 [3]: 0.78 µM
EC_CLB30016 MITC95 [4]: 25 µM

C[n+]1cc2cc(OC[C@@H](O/N=C(\C(=O)N[C@@H]3C(=O)N(OS(=O)(=O)O)C3(C)C)c3csc(N)n3)C(=O)O)ccc2n1CCCN [Example 33, 1-(3-aminopropyl)-5-((R)-2-((((Z)-1-(2-aminothiazol-4-yl)-2-(((S)-2,2-dimethyl-4-oxo-1-(sulfooxy)azetidin-3-yl)amino)-2-oxoethylidene)amino)oxy)-2-carboxyethoxy)-2-methyl-1H-indazol-2-ium 2,2,2-trifluoroacetate]
AB_CL6188 MITC95 [1]: 25 µM
PA_CL5701 MITC95 [2]: 25 µM
KP_CL6569 MITC95 [3]: 25 µM
EC_CLB30016 MITC95 [4]: 100 µM

C[n+]1cc2cc(OC[C@H](O/N=C(\C(=O)N[C@@H]3C(=O)N(OS(=O)(=O)O)C3(C)C)c3csc(N)n3)C(=O)O)ccc2n1CC1CNC1 [Example 34, 5-((S)-2-((((Z)-1-(2-aminothiazol-4-yl)-2-(((S)-2,2-dimethyl-4-oxo-1-(sulfooxy)azetidin-3-yl)amino)-2-oxoethylidene)amino)oxy)-2-carboxyethoxy)-1-(azetidin-3-ylmethyl)-2-methyl-1H-indazol-2-ium 2,2,2-trifluoroacetate]
AB_CL6188 MITC95 [1]: 3.1 µM
PA_CL5701 MITC95 [2]: 6.2 µM
KP_CL6569 MITC95 [3]: 0.78 µM
EC_CLB30016 MITC95 [4]: 25 µM

C[n+]1cc2cc(OC[C@@H](O/N=C(\C(=O)N[C@@H]3C(=O)N(OS(=O)(=O)O)C3(C)C)c3csc(N)n3)C(=O)O)ccc2n1CC1CNC1 [Example 35, 5-((R)-2-((((Z)-1-(2-aminothiazol-4-yl)-2-(((S)-2,2-dimethyl-4-oxo-1-(sulfooxy)azetidin-3-yl)amino)-2-oxoethylidene)amino)oxy)-2-carboxyethoxy)-1-(azetidin-3-ylmethyl)-2-methyl-1H-indazol-2-ium 2,2,2-trifluoroacetate]
AB_CL6188 MITC95 [1]: 25 µM
PA_CL5701 MITC95 [2]: 25 µM
KP_CL6569 MITC95 [3]: 12.5 µM
EC_CLB30016 MITC95 [4]: 100 µM

C[C@H]1[C@H](NC(=O)/C(=N\O[C@@H](COc2ccc3c(c2)c[n+](C)n3CCCN)C(=O)O)c2csc(N)n2)C(=O)N1S(=O)(=O)O [Example 36, 1-(3-aminopropyl)-5-((S)-2-((((Z)-1-(2-aminothiazol-4-yl)-2-(((2S,3S)-2-methyl-4-oxo-1-sulfoazetidin-3-yl)amino)-2-oxoethylidene)amino)oxy)-2-carboxyethoxy)-2-methyl-1H-indazol-2-ium 2,2,2-trifluoroacetate]
AB_CL6188 MITC95 [1]: 25 µM
PA_CL5701 MITC95 [2]: 3.1 µM
KP_CL6569 MITC95 [3]: 1.6 µM
EC_CLB30016 MITC95 [4]: 50 µM

CC1(C)[C@H](NC(=O)/C(=N\O[C@@H](COc2ccc3nc(CC4CNC4)cn3c2)C(=O)O)c2csc(N)n2)C(=O)N1OS(=O)(=O)O [Example 37, (S)-2-((((Z)-1-(2-aminothiazol-4-yl)-2-(((S)-2,2-dimethyl-4-oxo-1-(sulfooxy)azetidin-3-yl)amino)-2-oxoethylidene)amino)oxy)-3-((2-(azetidin-3-ylmethyl)imidazo[1,2-a]pyridin-6-yl)oxy)propanoic acid, 2,2,2-trifluoroacetate salt]
AB_CL6188 MITC95 [1]: 25 µM
PA_CL5701 MITC95 [2]: 6.25 µM
KP_CL6569 MITC95 [3]: 0.78 µM
EC_CLB30016 MITC95 [4]: 12.5 µM

CC1(C)[C@H](NC(=O)/C(=N\O[C@H](COc2ccc3nc(CC4CNC4)cn3c2)C(=O)O)c2csc(N)n2)C(=O)N1OS(=O)(=O)O [Example 38, (R)-2-((((Z)-1-(2-aminothiazol-4-yl)-2-(((S)-2,2-dimethyl-4-oxo-1-(sulfooxy)azetidin-3-yl)amino)-2-oxoethylidene)amino)oxy)-3-((2-(azetidin-3-ylmethyl)imidazo[1,2-a]pyridin-6-yl)oxy)propanoic acid, 2,2,2-trifluoroacetate salt]
AB_CL6188 MITC95 [1]: 50 µM
PA_CL5701 MITC95 [2]: 50 µM
KP_CL6569 MITC95 [3]: 6.2 µM
EC_CLB30016 MITC95 [4]: 100 µM

C[n+]1c(CC2CNC2)cn2cc(OC[C@H](O/N=C(\C(=O)N[C@@H]3C(=O)N(OS(=O)(=O)O)C3(C)C)c3csc(N)n3)C(=O)O)ccc21 [Example 39, 6-((S)-2-((((Z)-1-(2-aminothiazol-4-yl)-2-(((S)-2,2-dimethyl-4-oxo-1-(sulfooxy)azetidin-3-yl)amino)-2-oxoethylidene)amino)oxy)-2-carboxyethoxy)-2-(azetidin-3-ylmethyl)-1-methylimidazo[1,2-a]pyridin-1-ium 2,2,2-trifluoroacetate]
AB_CL6188 MITC95 [1]: 6.2 µM
PA_CL5701 MITC95 [2]: 6.2 µM
KP_CL6569 MITC95 [3]: 0.78 µM
EC_CLB30016 MITC95 [4]: 12.5 µM
